In the supplement of paper PMC11880418:
Structures can show the parent of a compound that is named as a salt. The list shows a part of the results. The data scatter; read single values as rough.
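Note: High-content imaging of ALDEFLUOR-stained cells with Hoechst-labelled nuclei in 384-well plates, triplicate wells, scored as Z-score against 0.1% DMSO vehicle, negative meaning fewer ALDHbr cells.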

What follows are compounds tested on PANC1 (assay: ALDHbr (CSC) cell proportion score relative to DMSO vehicle (ratio to DMSO); breast (SUM159) / gastric (MKN45) / pancreatic (PANC1) / colon cancer lines; ALDHbr cells have high ALDH activity and are rich in cancer stem cells (CSC); higher = more CSC (ALDHbr) cells remaining). Settings: 10 µM; 72 h.
Work on `COc1cc(C(=O)OCCCN2CCCN(CCCOC(=O)c3cc(OC)c(OC)c(OC)c3)CC2)cc(OC)c1OC` [Dilazep dihydrochloride] yielded an ALDHbr of 0.634.
Compound `O=C1OCCN1/N=C/c1ccc([N+](=O)[O-])o1` [Furazolidone] has an ALDHbr of 0.817.
`Clc1cc(Cl)c(OCC#CI)cc1Cl` [Haloprogin] showed an ALDHbr of 0.782.
`CC[C@]12CCCN3CCc4c(n(c5ccccc45)[C@@](O)(C(=O)OC)C1)[C@@H]32` [Vincamine] gave an ALDHbr of 1.05.

These compounds were tested on SUM159 in the same assay as above. Settings: 10 µM; 72 h.
`CC[C@H]1OC(=O)[C@H](C)[C@@H](O[C@H]2C[C@@](C)(OC)[C@@H](O)[C@H](C)O2)[C@H](C)[C@@H](O[C@@H]2O[C@H](C)C[C@H](N(C)C)[C@H]2O)[C@](C)(OC)C[C@@H](C)C(=O)[C@H](C)[C@@H](O)[C@]1(C)O` [Clarithromycin] showed an ALDHbr of 0.917.
Compound `C#C[C@]1(O)CC[C@H]2[C@@H]3CCC4=Cc5oncc5C[C@]4(C)[C@H]3CC[C@@]21C` [Danazol] has an ALDHbr of 1.02.
With `CCOC(=O)[C@H](CCc1ccccc1)N[C@@H](C)C(=O)N1[C@H](C(=O)O)C[C@@H]2CCC[C@@H]21` [Ramipril] the ALDHbr was 0.919.
For `CCCCC(CC)CN1CN(CC(CC)CCCC)CC(C)(N)C1` (stereo not given) [Hexetidine], the ALDHbr was 1.14.
Work on `CCC(=O)O[C@]1(C(=O)CCl)[C@@H](C)C[C@H]2[C@@H]3CCC4=CC(=O)C=C[C@]4(C)[C@@]3(F)[C@@H](O)C[C@@]21C` [Clobetasol propionate] yielded an ALDHbr of 1.23.
Compound `CC(=O)O[C@H]1C[C@@]2(C)[C@@H](C[C@@H](O)[C@H]3[C@@]4(C)CC[C@@H](O)[C@@H](C)[C@@H]4CC[C@@]32C)/C1=C(\CCC=C(C)C)C(=O)O` [Fusidic acid sodium salt] has an ALDHbr of 0.66.
